From patent publication US12551573B2, “Compositions and methods for the targeting of PCSK9” (Scribe Therapeutics Inc., priority 2022, dated 2026) come the findings set out here.

The chains are these.
B1: DOMAIN_21067 (protein, listed as Zalophus californianus)
chain: SQGLVTFRDVALDFSQEEWEWLDQSQKDLYRDVMLENYRNLVWLGLSISKPNMISLLEQGKEPWMVEKEMSDGQCADWDSW
B2: DOMAIN_20524 (protein)
chain: PQKSVTFEDVAVYFTQAEWDGLSPAQRTLYRDVMLENYGNVASLGFPLLKPAVISQLEGGGDLGGPSPLAAGTGLQGLRTV
modifications: Nomascus leucogenys
B3: DOMAIN_20469 (protein, listed as Equus caballus)
chain: PPSLVTFGDVAIDFSQEEWEWLNSAQRTLYRNVMLENYRNLASLGLCGSKPDMISSLEQRREPWITKRKLTRGRCPDLKAV
B4: DOMAIN_20545 (protein, listed as Sus scrofa)
chain: CKESVIFKDVCVNFSLEEWECLDLTQRNLYRCVMLENYSNLVSVVGLSIPKPDVISLLEQGKEPWGVFDSEMTRGLNQDCG
B5: DOMAIN_20835 (protein, listed as Suricata suricatta)
chain: KPGVLTFADVAVYFSSEEWGCLRPAQRALYRDVMRETYGHLGALGFPGPKPALISWMEQESEESEAWSPAAKDPEEGESLG
B6: DOMAIN_20915 (protein, listed as Mandrillus leucophaeus)
chain: GPLTFRDVAIEFSQEEWKSLDPVQKALYWDVMLENYRNLVFLGILPKCMTKELPPIGNSNTGEKFQRVMLERHECYDIENF
B7: DOMAIN_21082 (protein, listed as Loxodonta africana)
chain: KPGVVRFVDVAVYFSPEEWACLRPAQRALYRDVMRETYGHLGALGFPGPKPALISWMEQENEAWSPAAQDPEERENLGGVP
B8: DOMAIN_20998 (protein, listed as Pan paniscus)
chain: SPGLLTFRDVVIEFSLEEWQCLDHAQQNLYRDVMLENYRNLVSLGIAVSKPDLITCLEQNKDPWNIKRNEMVTKHPVMCSH
B9: DOMAIN_20537 (protein, listed as Chlorocebus sabaeus)
chain: KPGTVSFADVAVYFSREEWGCLRPAQRALYRDVMRETYGHLGALGVGGSKPALISWVEEAAELWDPAARDPEVTKCPTETD
B10: DOMAIN_20462 (protein, listed as Trichechus manatus)
chain: FQESVVFSDVSIAFSQEEWAHLDLEQKDLYRDVMLENYSNLVSLGCFVSKPDVISLLEQGKEPWKIVRKGRRRYPDLETRY
B11: DOMAIN_20565 (protein, listed as Suricata suricatta)
chain: KPGAVSFADVAVYFSPEEWGCLRPAQRALYRDVMRETYGHLGALGFRGTKPALICWVEEEADLWGPEARDPEVGACLTEAD
B12: DOMAIN_20601 (protein, listed as Sus scrofa)
chain: SQVSVTFEDVAVLFSRDEWRRLGPSQKNLYQDVMLENYSNLVSLGLPFSKPKVISLLQQGEDPWKVEKESPGSFPGCKSSP
B13: DOMAIN_20767 (protein, listed as Sus scrofa)
chain: CKESVIFKDVCVNFSLEEWECLDLTQRNLYRCVMLENYSNLVSVGLSIPKPDVISLLEQGKEPWGVFDSEMTRGLNQDCGS
B14: DOMAIN_20561 (protein, listed as Chrysochloris asiatica)
chain: RREPVTFEDVAVYFSENEWSSLAPAQRALYRDVMLENYGAVASLAFSFPKPALISQLERGEAPWSLAPQGALDGEGSRGIS
B15: DOMAIN_20487 (protein, listed as Mandrillus leucophaeus)
chain: EKGPLTFRDVVIEFSQEEWQCLDTAQQDLYRKVMLENFRNLVFLGIDVSKPDLITCLEQGKNPWNMKRHSMVATPPGVFFV
B16: DOMAIN_20674 (protein, listed as Mandrillus leucophaeus)
chain: SKAPITFGDLAIYFSQEEWEWLSPIQKDLYEDVMLENYRNLVSLGLSFRRPNVITLLEKGKAPWMIEPVRRRRAPELTEAS
B17: DOMAIN_20455 (protein)
chain: MEGLVMFQDLSIDFSQEEWECLDAAQKDLYRDVMMENYSSLVSLGLSTPKPDVISLLEQGKEPWMVSRDVLGGWCPDRLKK
modifications: Nomascus leucogenys
B18: DOMAIN_21023 (protein, listed as Sarcophilus harrisii)
chain: SQIPLTFQDVAVDFTWEEWGLLEPSQKDMYWDVMLEIYENFISLGGVPLSIPDVISQLERMEAPWMTQGGVLISTFLDSST
B19: DOMAIN_21010 (protein, listed as Equus caballus)
chain: MIESQISFEDVAVDFTLEEWQLLNPTQKNLYRDVMLENYSNLAFLGYQIIKPDAVFQLEQEEQWITDEEILNHSCPEEVWL
B20: DOMAIN_20667 (protein, listed as Suricata suricatta)
chain: AHGSLMFSDVSIVFSQEEWECLDLEQRDLYRDVMLENYTNLVSLGCFISKPDVISLLEQGKEPWKVVRKRRGQYADLETRY
B21: DOMAIN_20540 (protein, listed as Mandrillus leucophaeus)
chain: VHGSVTFRDVAIDFSQEEWECLQPEQRTLYRDVMLENYSHLISLGSSVSKPDVITLLEQEKEPWIVVRKETSRWYPDLESK
B22: DOMAIN_20729 (protein, listed as Mandrillus leucophaeus)
chain: VHGSVTFRDVAIDFSQEEWECLQPDQRTLYRDVMLENYSHLISLGSSISKPDVITLLEQEQEPWMVVRKETNRWYPDLESK
B23: DOMAIN_20652 (protein, listed as Neophocaena asiaeorientalis)
chain: SQGSVTFRDVAVDFSREEWEWLQPAQRDLYRHVMLENYGHLVSLGLNISKPHVVSLLEQGKEPWLGKDASRGLFSASESNG
B24: DOMAIN_20716 (protein, listed as Suricata suricatta)
chain: QAEVTFEDVAVLFSREEWGRLGPAQRGLYRDVMLETYRNLASLGAGRAGSKPGVITQLERGDEPWVLDAQGAKGKGQPRVS
B25: DOMAIN_344 (protein, listed as Pan paniscus)
chain: MSQVTFSDVAIDFSHEEWACLDSAQRDLYKDVMVQNYENLVSVGLSVTKPYVIMLLEDGKEPWMMEKKLSKDWESRWENKE
B26: DOMAIN_362 (protein, listed as Pan paniscus)
chain: MALRSVMFSDVSIDFSPEEWEYLDLEQKDLYRDVMLENYSNLVSLAGCFISKPDVISSLEQGKEPWKVVRKGRRQYPDLET

The subject of one test is HBEGF locus. The test is classed as cell-based, human. The conditions noted are these: high-throughput screen of dXR repression of the HBEGF gene; abundance of each domain in the library before vs after diphtheria toxin selection; listed domains met p-value <0.01 and log2(fold change) >2.
For the molecule B1, the “Log2 (fold change)” value came out at 3.0246.

Consider B2, for which the “Log2 (fold change)” value was determined as 3.2893.

As to B3, the “Log2 (fold change)” value is recorded as 2.7506.

Consider B4, for which the “Log2 (fold change)” value is reported as 2.711.

Turning to B5, the “Log2 (fold change)” value is recorded as 3.0025.

With B6, the “Log2 (fold change)” value amounted to 2.4373.

B7: the “Log2 (fold change)” value is on record as 3.2032.

Regarding B8, the “Log2 (fold change)” value amounted to 2.6659.

As for B9, the “Log2 (fold change)” value amounted to 3.2762.

B10: the “Log2 (fold change)” value was 5.4429.

With B11, the “Log2 (fold change)” value is listed as 3.148.

As to B12, the “Log2 (fold change)” value turned out to be 2.9097.

As for B13, the “Log2 (fold change)” value turned out to be 3.1224.

Take B14: the “Log2 (fold change)” value was 3.8309.

For the molecule B15, the “Log2 (fold change)” value came to 2.8325.

Turning to B16, the “Log2 (fold change)” value came to 3.3115.

As to B17, the “Log2 (fold change)” value is 3.112.

For the molecule B18, the “Log2 (fold change)” value was determined as 3.1196.

Consider B19, for which the “Log2 (fold change)” value came to 2.2253.

Turning to B20, the “Log2 (fold change)” value is on record as 3.7485.

Regarding B21, the “Log2 (fold change)” value was 2.8477.

On to B22, for which the “Log2 (fold change)” value was determined as 2.5535.

On to B23, for which the “Log2 (fold change)” value was 2.7283.

B24: the “Log2 (fold change)” value is listed as 3.6174.

The same test, now with this note: high-throughput screen of dXR repression of the HBEGF gene; change in abundance of each domain in the library before and after diphtheria toxin selection.
For B25, the “Log2 (fold change)” value was 2.4948.

In the case of B26, the “Log2 (fold change)” value turned out to be 3.6736.
